Assay results as given in patent US10925856B2, “Methods and compositions involving bucindolol for the treatment of atrial fibrillation” (priority 2018, dated 2021).
Several values for one entry are separate records, joined by “and”; a condition that tells them apart may be missing. Equal values may be shown once. Read-outs that look alike come from different tables or passages of the source.

Tested on: HFrEF patients with the ADRB1 Arg389Arg genotype at high risk for recurrent AF
Details: for Events/pts (%) / Events/pts, time to any AF/AFL or ACM / Hazard ratio (95% C.I.): U.S. randomized patients; for HR (95% CI), time to first event of AF/AFL/ACM: bucindolol vs. metoprolol
[1] = Serbia (N = 21), bucindolol vs metoprolol
[2] = Totals, 255 CYP2D6-genotyped patients
[3] = U.S. (N = 127), bucindolol vs metoprolol
[4] = entire cohort, 2D6 Poor Metabolizers (PMs)
[5] = entire cohort, 2D6 Poor Metabolizers (PMs), listed as Bucindolol
[6] = entire cohort, DTRI > −1 days in LVEF ≥ 0.39
[7] = entire cohort, Heart rate >74 bpm
[8] = entire cohort, Heart rate ≤ 74 bpm
[9] = entire cohort, Ischemic etiology
[10] = entire cohort, LVEF ≥ 0.39, AF Dx to randomization > 321 days
[11] = entire cohort, LVEF ≥ 0.39, AF Dx to randomization ≤ 321 days
[12] = entire cohort, NT-proBNP ≥ 1131 pg/ml
[13] = entire cohort, Non-ischemic etiology
[14] = entire cohort, Norepinephrine ≥ 600 pg/ml
[15] = entire cohort, Persistent AF at Randomization
[16] = entire cohort, Previous catheter ablation
[17] = entire cohort, SR/Paroxysmal AF at Randomization

## CC(C)(Cc1c[nH]c2ccccc12)NCC(O)COc1ccccc1C#N (centres unmarked) [bucindolol, 2-(3-(1-(1H-indol-3-yl)-2-methylpropan-2-ylamino)-2-hydroxypropoxy)benzonitrile]
[1]
  Time to AF/AFL/ACM, Non-stratified HR (95% CI): 0.59
  Time to AF/AFL/ACM, Stratified HR (95% CI): 0.42
[2]
  1EP Events: 71
  1EP Events (rate): (56%)
Totals, 255 CYP2D6-genotyped patients, bucindolol vs metoprolol
  Hazard Ratio Unadjusted, primary endpoint (1EP): 0.98
U.S.
  Failed ECV at day 0: 9%
[3]
  Time to AF/AFL/ACM, Non-stratified HR (95% CI): 0.77
  Time to AF/AFL/ACM, Stratified HR (95% CI): 0.70
U.S. (n = 127), covariate adjusted
  hazard ratio, Phase 2 (time to any AF/AFL or ACM): 0.70
U.S. patients N=127, covariate adjusted
  Hazard ratio, time to first AF/AFL/ACM, bucindolol vs. metoprolol: 0.70
U.S. patients, LVEF <0.30
  Hazard ratio, Phase 2 primary endpoint, bucindolol vs. metoprolol: 0.74
U.S. patients, LVEF ≤0.35
  Hazard ratio, Phase 2 primary endpoint, bucindolol vs. metoprolol: 0.75
U.S. patients, NYHA Class III
  Hazard ratio, Phase 2 primary endpoint, bucindolol vs. metoprolol: 0.81
U.S. patients, unadjusted
  Hazard ratio, time to first AF/AFL/ACM, bucindolol vs. metoprolol: 0.77
LVEF 0.30-0.39 (mean 0.332)
  Events/pts (%): (56%)
  Events/pts, time to any AF/AFL or ACM: 10/18
LVEF 0.30-0.39, bucindolol vs metoprolol
  Hazard ratio (95% C.I.): 0.86
LVEF 0.40-0.49 (mean 0.443)
  Events/pts (%): (62.5%)
  Events/pts, time to any AF/AFL or ACM: 15/24
LVEF 0.40-0.49, bucindolol vs metoprolol
  Hazard ratio (95% C.I.): 0.51
LVEF <0.30 (mean 0.229)
  Events/pts (%): (41%)
  Events/pts, time to any AF/AFL or ACM: 7/17
LVEF <0.30, bucindolol vs metoprolol
  Hazard ratio (95% C.I.): 0.74
NYHA Class I
  Events/pts (%): (33%)
  Events/pts, time to any AF/AFL or ACM: 4/12
NYHA Class I, bucindolol vs metoprolol
  Hazard ratio (95% C.I.): 0.55
NYHA Class II
  Events/pts (%): (64%)
  Events/pts, time to any AF/AFL or ACM: 23/36
NYHA Class II, bucindolol vs metoprolol
  Hazard ratio (95% C.I.): 0.82
NYHA Class III
  Events/pts (%): (50%)
  Events/pts, time to any AF/AFL or ACM: 6/12
NYHA Class III, bucindolol vs metoprolol
  Hazard ratio (95% C.I.): 0.81
All 2D6 genotypes other than PMs (IMs+EMs+UMs)
  Hazard ratio, Phase 2 primary endpoint, bucindolol vs. metoprolol: 0.92
AF12/HF12/DTRI-2, HFlrEF LVEF < 0.40
  HR (95% CI), time to first event of AF/AFL/ACM: 0.69
AF12/HF12/DTRI-2, HFmrEF 0.40 ≤ LVEF < 0.50
  HR (95% CI), time to first event of AF/AFL/ACM: 0.42 (0.21, 0.86)
AF12/HF12/DTRI-2, HFrEF LVEF < 0.50
  HR (95% CI), time to first event of AF/AFL/ACM: 0.54
AF12/HF12, HFlrEF LVEF < 0.40
  HR (95% CI), time to first event of AF/AFL/ACM: 0.74
AF12/HF12, HFmrEF 0.40 ≤ LVEF < 0.50
  HR (95% CI), time to first event of AF/AFL/ACM: 0.61 (0.34, 1.10)
AF12/HF12, HFrEF LVEF < 0.50
  HR (95% CI), time to first event of AF/AFL/ACM: 0.68
All Patients, HFlrEF LVEF < 0.40
  HR (95% CI), time to first event of AF/AFL/ACM: 1.03
All Patients, HFmrEF 0.40 ≤ LVEF < 0.50
  HR (95% CI), time to first event of AF/AFL/ACM: 0.78 (0.45, 1.33)
All Patients, HFrEF LVEF < 0.50
  HR (95% CI), time to first event of AF/AFL/ACM: 0.92
Entire cohort N=267, covariate adjusted (four randomization strata), 24 weeks
  Hazard ratio, time to first AF/AFL/ACM, bucindolol vs. metoprolol: 1.01
Entire cohort with Hungary removed
  Hazard ratio, time to first AF/AFL/ACM, bucindolol vs. metoprolol: 0.82
[4]
  Hazard ratio (unadjusted), Phase 2 primary endpoint, bucindolol vs. metoprolol: 2.19 and > 2.0
  Primary endpoint event rate: 67%
  Primary endpoint event rate, events/patients: 8/12
[5]
  Hazard ratio (unadjusted), Phase 2 primary endpoint, bucindolol vs. metoprolol: 2.19
  Primary endpoint event rate: (67%)
Entire cohort, AF at Rand
  Hazard ratio (unadjusted), Phase 2 primary endpoint, bucindolol vs. metoprolol: 0.91
  Primary endpoint event rate: (74%)
  Primary endpoint event rate, events/patients: 49/66
Entire cohort, Age > 66 years
  Hazard ratio (unadjusted), Phase 2 primary endpoint, bucindolol vs. metoprolol: 0.75
  Primary endpoint event rate: (48%)
  Primary endpoint event rate, events/patients: 34/71
Entire cohort, All Subjects
  Hazard ratio (unadjusted), Phase 2 primary endpoint, bucindolol vs. metoprolol: 0.96
  Primary endpoint event rate: 54%
  Primary endpoint event rate, events/patients: 73/134
Entire cohort, All Subjects, listed as Bucindolol
  Primary endpoint event rate: (54%)
[6]
  Hazard ratio (unadjusted), Phase 2 primary endpoint, bucindolol vs. metoprolol: 0.71
  Primary endpoint event rate: (50%)
  Primary endpoint event rate, events/patients: 14/28
Entire cohort, Gender female
  Hazard ratio (unadjusted), Phase 2 primary endpoint, bucindolol vs. metoprolol: 1.22
  Primary endpoint event rate: (57%)
  Primary endpoint event rate, events/patients: 13/23
[7]
  Hazard ratio (unadjusted), Phase 2 primary endpoint, bucindolol vs. metoprolol: 0.89
  Primary endpoint event rate: (64%)
  Primary endpoint event rate, events/patients: 41/64
[8]
  Hazard ratio (unadjusted), Phase 2 primary endpoint, bucindolol vs. metoprolol: 1.12
  Primary endpoint event rate: (46%)
  Primary endpoint event rate, events/patients: 32/70
[9]
  Hazard ratio (unadjusted), Phase 2 primary endpoint, bucindolol vs. metoprolol: 0.79
  Primary endpoint event rate: (43%)
  Primary endpoint event rate, events/patients: 18/42
Entire cohort, LVEF < 0.39
  Hazard ratio (unadjusted), Phase 2 primary endpoint, bucindolol vs. metoprolol: 1.02
  Primary endpoint event rate: (55%)
  Primary endpoint event rate, events/patients: 38/69
Entire cohort, LVEF ≥ 0.39
  Hazard ratio (unadjusted), Phase 2 primary endpoint, bucindolol vs. metoprolol: 0.89
  Primary endpoint event rate: (54%)
  Primary endpoint event rate, events/patients: 35/65
[10]
  Hazard ratio (unadjusted), Phase 2 primary endpoint, bucindolol vs. metoprolol: 1.20
  Primary endpoint event rate: (57%)
  Primary endpoint event rate, events/patients: 17/30
[11]
  Hazard ratio (unadjusted), Phase 2 primary endpoint, bucindolol vs. metoprolol: 0.65
  Primary endpoint event rate: (51%)
  Primary endpoint event rate, events/patients: 18/35
Entire cohort, LVEF ≥0.39, DTRI quartile Q1
  Hazard ratio, Phase 2 primary endpoint, bucindolol vs. metoprolol: 1.52
Entire cohort, LVEF ≥0.39, DTRI quartile Q2
  Hazard ratio, Phase 2 primary endpoint, bucindolol vs. metoprolol: 0.63
[12]
  Hazard ratio (unadjusted), Phase 2 primary endpoint, bucindolol vs. metoprolol: 0.87
  Primary endpoint event rate: (63%)
  Primary endpoint event rate, events/patients: 26/41
Entire cohort, NYHA I
  Hazard ratio (unadjusted), Phase 2 primary endpoint, bucindolol vs. metoprolol: 0.72
  Primary endpoint event rate: (38%)
  Primary endpoint event rate, events/patients: 15/40
Entire cohort, NYHA II/III
  Hazard ratio (unadjusted), Phase 2 primary endpoint, bucindolol vs. metoprolol: 1.06
  Primary endpoint event rate: (62%)
  Primary endpoint event rate, events/patients: 58/94
Entire cohort, No previous ECV
  Hazard ratio (unadjusted), Phase 2 primary endpoint, bucindolol vs. metoprolol: 0.82
  Primary endpoint event rate: (47%)
  Primary endpoint event rate, events/patients: 32/68
[13]
  Hazard ratio (unadjusted), Phase 2 primary endpoint, bucindolol vs. metoprolol: 1.02
  Primary endpoint event rate: (60%)
  Primary endpoint event rate, events/patients: 55/92
[14]
  Hazard ratio (unadjusted), Phase 2 primary endpoint, bucindolol vs. metoprolol: 0.81
  Primary endpoint event rate: (51%)
  Primary endpoint event rate, events/patients: 35/68
[15]
  Hazard ratio (unadjusted), Phase 2 primary endpoint, bucindolol vs. metoprolol: 0.85
  Primary endpoint event rate: (71%)
  Primary endpoint event rate, events/patients: 32/45
[16]
  Hazard ratio (unadjusted), Phase 2 primary endpoint, bucindolol vs. metoprolol: 0.73
  Primary endpoint event rate: (48%)
  Primary endpoint event rate, events/patients: 12/25
Entire cohort, SBP < 123 mm Hg
  Hazard ratio (unadjusted), Phase 2 primary endpoint, bucindolol vs. metoprolol: 1.18
  Primary endpoint event rate: (66%)
  Primary endpoint event rate, events/patients: 40/61
Entire cohort, SBP > 123 mm Hg
  Hazard ratio (unadjusted), Phase 2 primary endpoint, bucindolol vs. metoprolol: 0.82
  Primary endpoint event rate: (45%
  Primary endpoint event rate, events/patients: 33/73
Entire cohort, SR at FU Start
  Hazard ratio (unadjusted), Phase 2 primary endpoint, bucindolol vs. metoprolol: 1.00
  Primary endpoint event rate: (52%)
  Primary endpoint event rate, events/patients: 64/122
Entire cohort, SR at Rand
  Hazard ratio (unadjusted), Phase 2 primary endpoint, bucindolol vs. metoprolol: 1.13
  Primary endpoint event rate: (35%)
  Primary endpoint event rate, events/patients: 24/68
[17]
  Hazard ratio (unadjusted), Phase 2 primary endpoint, bucindolol vs. metoprolol: 1.09
  Primary endpoint event rate: (46%)
  Primary endpoint event rate, events/patients: 41/89
Entire cohort, number
  AF/AFL events among primary endpoint events: 64
  Deaths among primary endpoint events: no deaths
  ECV failures among primary endpoint events: 9
Entire cohort, number of events
  Primary endpoint events: Seventy-three
Entire cohort, stratified analysis including adjustment for previous use of class III anti-arrhythmic drugs
  Hazard ratio, time to first AF/AFL/ACM, bucindolol vs. metoprolol: 0.92
Interim analysis (230 randomized patients), USA
  Hazard ratio, AF/AFL/ACM endpoint, bucindolol vs. metoprolol: 0.73
overall, CYP2D6 genotyped patients
  Primary endpoint event rate: 56%
